Test results as given in a collection of fitness landscapes (doi:10.1016/j.celrep.2020.107928).
Over roughly 81,000 sequences, “one-hybrid fitness for binding NBS DNA” has its median near -0.1; the highest 2% begin near 0.36. The list shows a part of the results.

B1: Caulobacter ParB omega fusion; a variant is named by its letters at X, in order, B8GW30 (parent)
chain: MESVVVGEPGMSEGRRGLGRGLSALLGEVDAAPAQAPGEQLGGSREAPIEILQRNPDQPRRTFREEDLEDLSNSIREKGVLQPILVRPSPDTAGEYQIVAGERAWRAAQRAGLKTVPIMVRELDDLAVLEIGIIENVQRADLNVLEEALSYKVLMEKFERTQENIAQTIGKSXSHVANXMRLLXLPDEVQSYLVSGELTAXHARAIAAAADPVALAKQIIEGGLSVRETEALARKAPNLSAGKSKGGRPPRVKDTDTQALESDLSSVLGLDVSIDHRGSTGTLTITYATLEQLDDLCNRLTRGI

Variants of: B1
Test: one-hybrid fitness for binding NBS DNA (the Noc-binding site; scaled: cognate 1, non-cognate 0); higher = stronger binding
Conditions: with NBS DNA site
In short: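 Values were rescaled so that cognate is 1 and non-cognate is 0. Each is a fitness, the log change in a variant's read ratio to wild type from Illumina reads of plasmids before and after selection, with three replicate libraries pooled and variants under 10 reads dropped. Selection of the Caulobacter ParB libraries, four specificity codons randomised, used E. coli USO with a HIS3 reporter, site 19 bp from the promoter, on M9-minus-histidine with 0.1 mM IPTG and 5 mM 3-AT for 48 hours at 37°C.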

Variant	one-hybrid fitness for binding NBS DNA
RICF	≤ 0.2
YTVG	≤ 0.2
AREQ	≤ 0.2
QHDL	≤ 0.2
EGTR	≤ 0.2
PISY	≤ 0.2
PNLH	≤ 0.2
RWID	≤ 0.2
FYQG	≤ 0.2
FRGS	≤ 0.2
TCRC	≤ 0.2
WKVV	≤ 0.2
ATGC	≤ 0.2
TKAA	≤ 0.2
PPFI	≤ 0.2
SLDQ	≤ 0.2
SIQR	≤ 0.2
CGMS	≤ 0.2
MDAS	≤ 0.2
PAAN	≤ 0.2
ESSA	≤ 0.2
NMIG	≤ 0.2
PVDY	≤ 0.2
DVGK	≤ 0.2
NDSK	≤ 0.2
RSNI	≤ 0.2

Variant	one-hybrid fitness for binding NBS DNA
YVTG	≤ 0.2
QTLA	0.329
HDKE	≤ 0.2
VTSW	≤ 0.2
NYTY	≤ 0.2
ESAT	≤ 0.2
NTKR	0.255
HTVG	≤ 0.2
IREG	≤ 0.2
RGPV	≤ 0.2
YNQT	≤ 0.2
SVIR	≤ 0.2
IDPG	≤ 0.2
EHLA	≤ 0.2
IPTV	≤ 0.2
TTDM	≤ 0.2
VYIM	≤ 0.2
YWPY	≤ 0.2
DIHT	≤ 0.2
SFAV	≤ 0.2
YYRR	≤ 0.2
QGLR	≤ 0.2
YRCC	≤ 0.2
TEMS	≤ 0.2
DIDL	≤ 0.2
IYNN	≤ 0.2

Variant	one-hybrid fitness for binding NBS DNA
NIGT	≤ 0.2
MNIS	≤ 0.2
SHAT	≤ 0.2
EQNR	≤ 0.2
VRFV	≤ 0.2
RKPR	≤ 0.2
TLPM	≤ 0.2
CLDV	≤ 0.2
RQGF	≤ 0.2
RNHH	≤ 0.2
PMHT	≤ 0.2
RRNF	0.281
DVKT	≤ 0.2
RMKN	≤ 0.2
THRN	≤ 0.2
PQPV	0.241
TQRL	≤ 0.2
STVT	≤ 0.2
RKHC	0.263
NDME	≤ 0.2
RPLK	≤ 0.2
CPGC	≤ 0.2
TCCR	≤ 0.2
KPFR	≤ 0.2
WSIR	≤ 0.2
ELSN	≤ 0.2

Variant	one-hybrid fitness for binding NBS DNA
ISPC	≤ 0.2
RVYG	≤ 0.2
QYPG	≤ 0.2
LLAH	≤ 0.2
HDPM	≤ 0.2
DCDT	≤ 0.2
RCLC	≤ 0.2
WLLN	≤ 0.2
QNIS	≤ 0.2
EHKR	0.209
FMKK	≤ 0.2
KLGN	≤ 0.2
PVHL	≤ 0.2
APAN	≤ 0.2
IAPM	≤ 0.2
QFPI	≤ 0.2
RYRQ	≤ 0.2
GRAV	≤ 0.2
NVQQ	0.264
YKDN	≤ 0.2
DFRY	≤ 0.2
SMST	≤ 0.2
PHCE	≤ 0.2
SPYG	≤ 0.2
DIGK	≤ 0.2
GTAK	≤ 0.2

Variant	one-hybrid fitness for binding NBS DNA
CHSY	≤ 0.2
TQYL	≤ 0.2
PYTN	≤ 0.2
RCYT	0.517
KWRS	≤ 0.2
HVNL	≤ 0.2
LGEG	≤ 0.2
TTMI	≤ 0.2
SIAL	≤ 0.2
PFIR	≤ 0.2
SLRM	≤ 0.2
SKTY	≤ 0.2
RMYY	≤ 0.2
HTRP	≤ 0.2
VSLL	≤ 0.2
DIWY	≤ 0.2
ISRK	≤ 0.2
LGES	≤ 0.2
ELRV	≤ 0.2
PFIM	≤ 0.2
CARS	≤ 0.2
RARI	≤ 0.2
RLND	≤ 0.2
KQFV	≤ 0.2
GGMY	≤ 0.2
GTEG	≤ 0.2

Variant	one-hybrid fitness for binding NBS DNA
CITH	≤ 0.2
YQIS	≤ 0.2
HALF	≤ 0.2
RRTN	0.339
QCPA	≤ 0.2
IWES	≤ 0.2
CSWG	≤ 0.2
SYYW	≤ 0.2
NNDL	≤ 0.2
MAVE	≤ 0.2
TCVP	≤ 0.2
QWTW	≤ 0.2
HYQG	≤ 0.2
QLCF	≤ 0.2
TNAA	≤ 0.2
QMTY	≤ 0.2
IAVS	≤ 0.2
TLTH	≤ 0.2
HDRP	≤ 0.2
MSLI	≤ 0.2
HNKY	≤ 0.2
RNWN	≤ 0.2
CQLS	≤ 0.2
